In a collection of fitness landscapes (doi:10.1126/science.1257360):
Some of the results follow.

B1: PhoQ; a variant is named by its letters at X, in order, P23837 (parent)
chain: MKKLLRLFFPLSLRVRFLLATAAVVLVLSLAYGMVALIGYSVSFDKTTFRLLRGESNLFYTLAKWENNKLHVELPENIDKQSPTMTLIYDENGQLLWAQRDVPWLMKMIQPDWLKSNGFHEIEADVNDTSLLLSGDHSIQQQLQEVREDDDDAEMTHSVAVNVYPATSRMPKLTIVVVDTIPVELKSSYMVWSWFIYVLSANLLLVIPLLWVAAWWSLRPIEALAKEVRELEEHNRELLNPATTRELTSLVRNLNRLLKSERERYDKYRTTLTDLTHSLKTPLXXLQXXLRSLRSEKMSVSDAEPVMLEQISRISQQIGYYLHRASMRGGTLLSRELHPVAPLLDNLTSALNKVYQRKGVNISLDISPEISFVGEQNDFVEVMGNVLDNACKYCLEFVEISARQTDEHLYIVVEDDGPGIPLSKREVIFDRGQRVDTLRPGQGVGLAVAREITEQYEGKIVAGESMLGGARMEVIFGRQHSAPKDE

Variants of: B1
Test: enrichment ratio after two sorts for PhoP signalling (ratio (wild type AVST 3.29)); higher = more functional
Conditions: with PhoP (E. coli)

| Variant | enrichment ratio |
| --- | --- |
| PTAA | ≤ 0.25 |
| SFQD | ≤ 0.25 |
| KYCQ | ≤ 0.25 |
| HRLP | ≤ 0.25 |
| PEYR | ≤ 0.25 |
| NNNR | ≤ 0.25 |
| VRET | ≤ 0.25 |
| SQVL | 8.13 |
| RACL | ≤ 0.25 |
| GGAH | ≤ 0.25 |
| RPIT | ≤ 0.25 |
| FSVS | ≤ 0.25 |
| EDHQ | ≤ 0.25 |
| YYIY | ≤ 0.25 |
| GDIK | ≤ 0.25 |
| ARGS | ≤ 0.25 |
| HCWI | ≤ 0.25 |
| GYQS | ≤ 0.25 |
| VSPY | ≤ 0.25 |
| MSRH | ≤ 0.25 |
| FQMN | ≤ 0.25 |
| KLGR | ≤ 0.25 |
| WERN | ≤ 0.25 |
| CTNP | ≤ 0.25 |

| Variant | enrichment ratio |
| --- | --- |
| VQPF | ≤ 0.25 |
| SFVG | 6.8 |
| TFQG | 12.3 |
| WQYT | ≤ 0.25 |
| PDIG | ≤ 0.25 |
| NTMM | ≤ 0.25 |
| FICT | ≤ 0.25 |
| WRCI | ≤ 0.25 |
| FMMS | ≤ 0.25 |
| PTHQ | ≤ 0.25 |
| YKCF | ≤ 0.25 |
| FQHG | ≤ 0.25 |
| IMVC | ≤ 0.25 |
| SQKL | ≤ 0.25 |
| MPKG | ≤ 0.25 |
| QVPH | ≤ 0.25 |
| LWTN | ≤ 0.25 |
| IHTY | ≤ 0.25 |
| NGTG | ≤ 0.25 |
| GVPI | ≤ 0.25 |
| TLLW | ≤ 0.25 |
| HYRC | ≤ 0.25 |
| EDTA | ≤ 0.25 |
| HDIN | ≤ 0.25 |

| Variant | enrichment ratio |
| --- | --- |
| GYHN | ≤ 0.25 |
| MDND | ≤ 0.25 |
| HGGK | ≤ 0.25 |
| MDQE | ≤ 0.25 |
| SSNW | ≤ 0.25 |
| EMNC | ≤ 0.25 |
| VRHT | ≤ 0.25 |
| WMSL | ≤ 0.25 |
| FCNT | ≤ 0.25 |
| NTQG | ≤ 0.25 |
| YNLM | 8.52 |
| IASC | ≤ 0.25 |
| PHIV | ≤ 0.25 |
| NRCM | ≤ 0.25 |
| LNNV | ≤ 0.25 |
| VEYE | ≤ 0.25 |
| KFPV | ≤ 0.25 |
| VMTR | ≤ 0.25 |
| KDRG | ≤ 0.25 |
| FNHM | ≤ 0.25 |
| MLKE | ≤ 0.25 |
| LCIA | ≤ 0.25 |
| PFDT | ≤ 0.25 |
| SACQ | 13.5 |

| Variant | enrichment ratio |
| --- | --- |
| NSCP | ≤ 0.25 |
| DTLD | ≤ 0.25 |
| IQHM | ≤ 0.25 |
| LPWD | ≤ 0.25 |
| IQHW | ≤ 0.25 |
| FARY | ≤ 0.25 |
| REWG | ≤ 0.25 |
| AVEP | ≤ 0.25 |
| YTNT | ≤ 0.25 |
| GLNW | ≤ 0.25 |
| WNTA | ≤ 0.25 |
| YHVW | ≤ 0.25 |
| PRRF | ≤ 0.25 |
| LDRY | ≤ 0.25 |
| ASTW | ≤ 0.25 |
| LESF | ≤ 0.25 |
| WDPL | ≤ 0.25 |
| YEFQ | ≤ 0.25 |
| GWPI | ≤ 0.25 |
| QQGC | ≤ 0.25 |
| SWHY | ≤ 0.25 |
| TFWG | ≤ 0.25 |
| DNLV | ≤ 0.25 |
| YIPE | ≤ 0.25 |

| Variant | enrichment ratio |
| --- | --- |
| EPQL | ≤ 0.25 |
| RPSA | ≤ 0.25 |
| MEAC | 37.3 |
| TMTP | ≤ 0.25 |
| WKQN | ≤ 0.25 |
| AGYW | ≤ 0.25 |
| QPDF | ≤ 0.25 |
| HDAR | ≤ 0.25 |
| FLVK | ≤ 0.25 |
| KSAY | 0.715 |
| YQPC | ≤ 0.25 |
| YEVA | ≤ 0.25 |
| RFTK | ≤ 0.25 |
| WAHS | ≤ 0.25 |
| VWLS | ≤ 0.25 |
| PPDF | ≤ 0.25 |
| DSWP | ≤ 0.25 |
| FMDC | ≤ 0.25 |
| VICF | 1.1 |
| VFEC | ≤ 0.25 |
| YGQR | ≤ 0.25 |
| LFSA | ≤ 0.25 |
| WLMW | ≤ 0.25 |
| VEST | 4.04 |

| Variant | enrichment ratio |
| --- | --- |
| RIMN | ≤ 0.25 |
| TLTN | 7.17 |
| QLER | ≤ 0.25 |
| VKLW | ≤ 0.25 |
| INLG | 2.36 |
| FFTW | ≤ 0.25 |
| RPFI | ≤ 0.25 |
| YDNR | ≤ 0.25 |
| LWNW | ≤ 0.25 |
| PIPM | ≤ 0.25 |
| PSQR | ≤ 0.25 |
| KGVI | ≤ 0.25 |
| NHGN | ≤ 0.25 |
| AQDL | ≤ 0.25 |
| HMIL | ≤ 0.25 |
| NGWT | ≤ 0.25 |
| PCDF | ≤ 0.25 |
| VPHV | ≤ 0.25 |
| HNVP | ≤ 0.25 |
| DMIV | ≤ 0.25 |
| VCRN | ≤ 0.25 |
| NYAG | ≤ 0.25 |
| YFNI | ≤ 0.25 |
| HCPK | ≤ 0.25 |

| Variant | enrichment ratio |
| --- | --- |
| RNAR | ≤ 0.25 |
| GEMY | ≤ 0.25 |
| DNPT | ≤ 0.25 |
| EPPL | ≤ 0.25 |
| TRQE | ≤ 0.25 |
| HYRD | ≤ 0.25 |
| HGMV | 1.32 |
| RATP | ≤ 0.25 |
| LWQM | ≤ 0.25 |
| GFRK | ≤ 0.25 |
| ADMT | ≤ 0.25 |
| ASVE | 21.7 |
| YSWT | ≤ 0.25 |
| GNGE | ≤ 0.25 |
| RYQG | ≤ 0.25 |
| ALIT | ≤ 0.25 |
| LEML | ≤ 0.25 |
| QFAW | ≤ 0.25 |
| DYIW | ≤ 0.25 |
| LEHP | ≤ 0.25 |
| FSSV | 0.625 |
| LPSP | ≤ 0.25 |
| KVPV | ≤ 0.25 |
| HGNL | ≤ 0.25 |

| Variant | enrichment ratio |
| --- | --- |
| LASR | ≤ 0.25 |
| VNLY | ≤ 0.25 |
| TEFF | 6.49 |
| HNDP | ≤ 0.25 |
| RSQK | ≤ 0.25 |
| GAQF | ≤ 0.25 |
| FGFH | ≤ 0.25 |
| QAPG | ≤ 0.25 |
| PISI | ≤ 0.25 |
| RQSC | ≤ 0.25 |
| DMFH | ≤ 0.25 |
| IHKI | ≤ 0.25 |
| NFRA | ≤ 0.25 |
| SIIS | 1.84 |
| FWEP | ≤ 0.25 |
| DDER | ≤ 0.25 |
| YNTL | ≤ 0.25 |
| ETEP | ≤ 0.25 |
| YKDL | ≤ 0.25 |
| MVAC | ≤ 0.25 |
| WPHT | ≤ 0.25 |
| YRTQ | ≤ 0.25 |
| DHRG | ≤ 0.25 |
| KENV | ≤ 0.25 |

| Variant | enrichment ratio |
| --- | --- |
| PPYM | ≤ 0.25 |
| QMTH | ≤ 0.25 |
| EDFK | ≤ 0.25 |
| VHEW | ≤ 0.25 |
| TSGQ | 7.96 |
| ITNS | ≤ 0.25 |
| VIIY | ≤ 0.25 |
| HMSP | ≤ 0.25 |
| LTCL | ≤ 0.25 |
| ATLL | 20.5 |
| MLGF | 5.31 |
| AFLV | 0.418 |
| IPFY | ≤ 0.25 |
| MNLQ | ≤ 0.25 |
| RVRR | ≤ 0.25 |
| KHYL | ≤ 0.25 |
| HDDC | ≤ 0.25 |
| HVLH | ≤ 0.25 |
| KADW | ≤ 0.25 |
| DDYG | ≤ 0.25 |
| INFS | ≤ 0.25 |
| KTFT | ≤ 0.25 |
| SMMD | ≤ 0.25 |
| NYPV | ≤ 0.25 |

| Variant | enrichment ratio |
| --- | --- |
| RVGG | ≤ 0.25 |
| QKSN | ≤ 0.25 |
| AYLI | 0.332 |
| FWRM | ≤ 0.25 |
| ANQC | ≤ 0.25 |
| EKVK | ≤ 0.25 |
| GSRA | ≤ 0.25 |
| HNVN | ≤ 0.25 |
| QANQ | ≤ 0.25 |
| SRRL | ≤ 0.25 |
| INTC | ≤ 0.25 |
| QKID | ≤ 0.25 |
| MYLS | ≤ 0.25 |
| NMNF | ≤ 0.25 |
| RDDK | ≤ 0.25 |
| FYAM | ≤ 0.25 |
| WGCI | ≤ 0.25 |
| IVKR | ≤ 0.25 |
| KRQL | ≤ 0.25 |
| MNIM | 12.3 |
| GPGI | ≤ 0.25 |
| QRLN | ≤ 0.25 |
| TMVV | 0.573 |
| DAVQ | ≤ 0.25 |

| Variant | enrichment ratio |
| --- | --- |
| RRGV | ≤ 0.25 |
| APSF | ≤ 0.25 |
| HAWP | ≤ 0.25 |
| HQLM | 1.87 |
| QLGF | 0.507 |
| TRDY | ≤ 0.25 |
| FYDL | ≤ 0.25 |
| GEIN | ≤ 0.25 |
| FRWW | ≤ 0.25 |
| VCYK | ≤ 0.25 |
| WGRF | ≤ 0.25 |
| AICN | 18.7 |
| THRS | ≤ 0.25 |
| PPED | ≤ 0.25 |
| GDLD | ≤ 0.25 |
| TLVI | ≤ 0.25 |
| WEAQ | ≤ 0.25 |
| AFLY | 0.967 |
| MFQF | ≤ 0.25 |
| GRDW | ≤ 0.25 |
| IESE | ≤ 0.25 |
| QFCQ | ≤ 0.25 |
| HMWM | ≤ 0.25 |
| IFET | ≤ 0.25 |

| Variant | enrichment ratio |
| --- | --- |
| RVYD | ≤ 0.25 |
| PNIA | ≤ 0.25 |
| YNSM | 0.318 |
| KFKE | ≤ 0.25 |
| TWKP | ≤ 0.25 |
| LIIN | ≤ 0.25 |
| WAGL | ≤ 0.25 |
| LGDK | ≤ 0.25 |
| WCRL | ≤ 0.25 |
| WPIC | ≤ 0.25 |
| PNPQ | ≤ 0.25 |
| GQCN | ≤ 0.25 |
| EHTY | ≤ 0.25 |
| VEKV | ≤ 0.25 |
| VNYH | ≤ 0.25 |
| TPRH | ≤ 0.25 |
| PCAL | ≤ 0.25 |
| PFLY | ≤ 0.25 |
| EHAM | ≤ 0.25 |
| QVYL | 2.73 |
| PHSA | ≤ 0.25 |
| MKIE | ≤ 0.25 |
| EYNE | ≤ 0.25 |
| TCNE | 19.6 |

| Variant | enrichment ratio |
| --- | --- |
| GSTF | ≤ 0.25 |
| DFDH | ≤ 0.25 |
| TTNE | ≤ 0.25 |
| IAVA | ≤ 0.25 |
| PQAV | ≤ 0.25 |
| NSDL | ≤ 0.25 |
| FILL | 3.1 |
| WWRA | ≤ 0.25 |
| VGDF | ≤ 0.25 |
| FFGR | ≤ 0.25 |
| SANR | ≤ 0.25 |
| YHSN | ≤ 0.25 |
| TGPF | ≤ 0.25 |
| SPDH | ≤ 0.25 |
| STNC | ≤ 0.25 |
| KTCN | ≤ 0.25 |
| FKWN | ≤ 0.25 |
| QHHY | ≤ 0.25 |
